Source: PubChem BioAssay AID493208 (National Center for Advancing Translational Sciences (NCATS), 2011)
The campaign covered roughly 44,000 compounds. About 340 (0.77%) were called active. Roughly 5% stayed inconclusive and do not appear here. Calls follow the shape of the dose curve; as a rule, active = well fitted inhibition curve with a large enough effect; inconclusive = small, poorly fitted or top-dose-only effect; inactive = flat fitted curve, though single readings scatter. The list shows a part of the results.

assay: Acumen qHTS Assay for Inhibitors of the mTORC1 Signaling Pathway in MEF (Tsc2-/-, p53-/-) Cells: Sytravon; details: phospho-rpS6 immunofluorescence/PI, 24 h; series mostly up to 38.3 µM; activity change, negative = inhibition: at the top concentration;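 also: plate controls were DMSO for no effect and rapamycin for full effect; nearly all actives have a fitted effect of over 50% in size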
In short: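 Tsc2-/-, p53-/- MEFs (empty-vector stable line) in DMEM + 10% FBS were treated with compounds 24 h at 37 degree Celsius, fixed, and immunostained for phospho-rpS6 (Alexa-488) with propidium iodide counterstain. Laser-scanning cytometry gave % positive cells, normalized against 7.5 nM rapamycin and DMSO.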

| Compound | activity change, negative = inhibition |
| --- | --- |
| CCOC(=O)c1[nH]c(C)c(CCC(=O)NCc2ccc(CC)cc2)c1C | inactive: 9.93% |
| O=C1CSC2(C(=O)N(Cc3cccc(F)c3)c3ccccc32)N1c1cccc(C(F)(F)F)c1 (stereo unspecified) | inactive: -1.69% |
| CC(C)COc1ccc(C(=O)N2CCN(CCc3ccncc3)CC2)cc1 | inactive: -4.67% |
| COc1ccc(N(C)C(=O)c2cn(C)c(=O)c3cc(OC)c(OC)cc23)cc1 | inactive: -21.9% |
| Cc1ccc(Cn2c(CO)cnc2SCC(=O)Nc2ccc(C)c(Cl)c2)cc1 | inactive: -6.31% |
| COc1ccc(NC(=O)c2ccc3nc(C(C)C)oc3c2)cc1OC | inactive: -14.4% |
| COc1ccc(NC(=O)Cn2cc(S(=O)(=O)c3ccccc3)c(=O)c3cc4c(cc32)OCO4)cc1 | inactive: -4.75% |
| CCN1CCc2c(sc(-n3cccc3)c2C(C)NC(=O)Nc2ccc(Br)cc2)C1 (stereo unspecified) | inactive: -2.77% |
| CCCC(=O)OCc1cnc(C)c2oc(=O)c(C(=O)Nc3cccc(C(F)(F)F)c3)cc12 | inactive: 0% |
| COc1ccc(N(Cc2cccs2)C(=O)c2ccc(OC)c(Cl)c2)cc1 | inactive: -4.73% |
| Cc1cccc(N2CCN(C(=O)C3CCN(S(=O)(=O)c4c(C)noc4C)CC3)CC2C)c1 (stereo unspecified) | inactive: -14.6% |
| CCCS(=O)(=O)c1c(S(=O)(=O)CCC)c2cc(C(C)(C)C)ccn2c1C(=O)c1ccccc1 | inactive: 7.1% |
| Cc1c(C(=O)Nc2ccccc2)sc2nc(-c3cc4cc(Cl)ccc4oc3=O)[nH]c(=O)c12 | inactive: -1.8% |
| COc1cccc(N2CCN(C(=O)C3CCN(S(=O)(=O)c4c(C)noc4/C=C/c4ccccc4F)CC3)CC2)c1 | inactive: -4.21% |
| CCC(=O)Nc1ccccc1-c1nc2ccccc2n(CC(=O)Nc2ccccc2OC)c1=O | inactive: -13.1% |
| Cc1ccccc1C(=O)Nc1ccc2nc(N3CCCCC3)cc(C)c2c1 | inactive: -16.5% |
| COC(=O)c1ccc(NC(=O)CC2C(=O)N(c3ccccc3)C(=O)N2Cc2ccc(F)cc2)cc1 (stereo unspecified) | inactive: 1.03% |
| CCN(CC)C(=O)c1sc2c(c1C)c(=O)n(CCc1ccccc1)c(=O)n2Cc1cc(C)ccc1C | inactive: -2.94% |
| COc1cccc(N2CCN(C(=O)c3cc4c(s3)-c3ccccc3OC4)CC2)c1 | inactive: -9.47% |
| CC(C)(C)C(=O)NCC(c1ccc2c(c1)OCO2)N1CCOCC1 (stereo unspecified) | inactive: 0.333% |
| O=C(CSc1nnc(-c2cccs2)o1)Oc1ccccc1Cl | inactive: 0.298% |
| O=C(NCCc1ccc(Cl)cc1)c1ccc(CS(=O)(=O)c2ccc(Cl)cc2)o1 | inactive: 12.5% |
| Cc1cccc(C)c1NC(=O)C(NS(=O)(=O)c1cccs1)c1ccccc1 (stereo unspecified) | inactive: 7.49% |
| O=C(Cn1ccn(-c2ccc(F)cc2)c(=O)c1=O)Nc1ccc(F)cc1 | inactive: -2.78% |
| O=C(Cn1ncc2c3ccccc3n(Cc3cccc(Cl)c3)c2c1=O)Nc1ccc(F)cc1F | inactive: -12.6% |
| COc1cc(CNC(=O)c2ccc3c(c2)c(C)c(C)n3Cc2cccc(C)c2)cc(OC)c1OC | inactive: -7.43% |
